Experimental data taken from PubChem BioAssay AID504332 (National Center for Advancing Translational Sciences (NCATS), 2011).
Hit rate of the full screen: of about 350,000 compounds, about 31,000 (8.9%) were called active. This list was built around the results that the source calls inconclusive (neither active nor inactive); the mix of calls is not that of the screen. The call rests on the fitted dose curve; in most records, active means well fitted inhibition curve with a large enough effect; inconclusive means small, poorly fitted or top-dose-only effect; inactive means no such curve, though single readings can be large or run the other way. Potencies of inconclusive entries are doubtful fits and often do not repeat.

Molecular target: Histone-lysine N-methyltransferase EHMT2 (Homo sapiens) (UniProt Q96KQ7)
Chain of UniProt Q96KQ7 (Q96KQ7 whole entry, looked up): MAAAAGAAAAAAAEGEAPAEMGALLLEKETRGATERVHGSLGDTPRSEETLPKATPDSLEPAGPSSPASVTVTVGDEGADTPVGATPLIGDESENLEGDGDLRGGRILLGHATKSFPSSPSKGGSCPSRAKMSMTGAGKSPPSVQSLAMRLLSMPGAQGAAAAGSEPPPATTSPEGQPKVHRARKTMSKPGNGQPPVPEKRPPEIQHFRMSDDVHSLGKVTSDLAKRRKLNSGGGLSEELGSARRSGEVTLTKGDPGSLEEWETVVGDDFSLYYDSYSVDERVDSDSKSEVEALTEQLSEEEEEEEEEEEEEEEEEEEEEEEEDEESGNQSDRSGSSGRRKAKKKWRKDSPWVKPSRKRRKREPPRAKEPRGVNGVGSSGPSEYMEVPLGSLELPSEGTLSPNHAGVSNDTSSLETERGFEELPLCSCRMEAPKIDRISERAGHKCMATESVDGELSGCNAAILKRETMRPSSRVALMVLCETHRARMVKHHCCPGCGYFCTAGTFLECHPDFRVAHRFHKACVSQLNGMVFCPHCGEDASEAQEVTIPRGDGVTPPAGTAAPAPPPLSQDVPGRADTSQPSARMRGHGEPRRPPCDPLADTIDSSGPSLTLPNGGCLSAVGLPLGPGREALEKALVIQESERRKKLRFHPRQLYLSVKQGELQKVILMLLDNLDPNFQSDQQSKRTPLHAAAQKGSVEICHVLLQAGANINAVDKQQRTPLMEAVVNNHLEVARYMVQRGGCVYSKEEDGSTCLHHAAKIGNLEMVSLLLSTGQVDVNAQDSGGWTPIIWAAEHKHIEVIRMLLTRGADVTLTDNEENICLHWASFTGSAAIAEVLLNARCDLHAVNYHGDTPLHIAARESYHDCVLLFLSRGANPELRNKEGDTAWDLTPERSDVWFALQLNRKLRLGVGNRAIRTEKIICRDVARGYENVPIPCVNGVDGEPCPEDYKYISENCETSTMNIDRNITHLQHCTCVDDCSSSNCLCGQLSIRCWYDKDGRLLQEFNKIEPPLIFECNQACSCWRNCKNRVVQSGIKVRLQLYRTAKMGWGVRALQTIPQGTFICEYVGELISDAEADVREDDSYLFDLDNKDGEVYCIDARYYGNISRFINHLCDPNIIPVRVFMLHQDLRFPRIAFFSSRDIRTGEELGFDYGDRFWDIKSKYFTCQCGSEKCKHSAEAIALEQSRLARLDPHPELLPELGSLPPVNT
Assay: qHTS Assay for Inhibitors of Histone Lysine Methyltransferase G9a; further: nearly all actives have a fitted effect of over 75% in size
Details: G9a H3K9 monomethylation, AlphaScreen, 2 h; activity, negative = inhibition: at 59 µM (top of the series) unless noted
In short: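 AlphaScreen detection with an anti-monomethyl H3K9 antibody quantified product after a 2 h room-temperature reaction containing 500 nM biotinylated H3K9 peptide, 20 µM SAM and 20 nM enzyme, which had been preincubated 15 min with compound.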
On the % scale 0 is the no-effect control and ±100 the full control effect; potency means the concentration at half of the fitted maximal effect; tags describe the fitted curve by direction and shape.

Compound	Potency	activity, negative = inhibition
COc1ccccc1Cn1ccn(Cc2c(F)cccc2Cl)c(=O)c1=O	inactive	–
CCOC(=O)c1ccc(NC(=O)COc2ccc(CNC3CCCCC3)cc2OC)cc1	inactive	–
COc1ccccc1CNC(=O)COC(=O)CNS(=O)(=O)c1ccc(C)cc1	active: 70.8 µM	–
COc1ccc(CCNC(=O)COC(=O)C23CC4CC(CC(Br)(C4)C2)C3)cc1	inactive	–
CCC1=Nc2cc(C(=O)NCCCN3CCOCC3)ccc2Sc2ccccc21	inconclusive: 5.01 µM [inhibitor, full curve]	–
CCc1ccc(NC(=O)c2ccc(-n3cncn3)c([N+](=O)[O-])c2)cc1	inconclusive: 5.62 µM [inhibitor, partial curve, poor fit]	–
C/C(=C\c1ccco1)C1C(C#N)=C(N)OC2=C1C(=O)CC(C)(C)C2 (stereo not given)	–	inconclusive: -77.9% [inhibitor]
O=C(Nc1cccnc1)c1cccnc1	inconclusive: 14.1 µM [inhibitor, partial curve, poor fit]	–
Cc1oc(-c2cccc3ccccc23)nc1CN1CCN(c2ncnc3ccccc23)CC1	active: 44.7 µM	–
CCc1[nH]c(=O)[nH]c1C(C)S(=O)(=O)c1ccc(C)cc1 (stereo not given)	active: 1.58 µM	–
O=C(CSc1nc(-c2ccccc2)cs1)Nc1nccs1	inconclusive: 2.51 µM [inhibitor, partial curve, poor fit]	–
CCc1ccc(-c2cc(C(=O)Nc3c(C)n(C)n(-c4ccccc4)c3=O)c3ccccc3n2)s1	inconclusive: 56.2 µM [inhibitor, single point]	–
CC(C)NCCCOc1ccc(C(C)(C)c2ccccc2)cc1	inconclusive: 7.08 µM [inhibitor, single point]	–
COC(=O)c1ccc(NC(=O)CSc2ccccn2)cc1	inconclusive: 15.8 µM [inhibitor, partial curve, poor fit]	–
CC1(C)CC(=O)C(C(c2ccc(F)cc2)C2C(=O)CC(C)(C)CC2=O)C(=O)C1	inconclusive: 39.8 µM [inhibitor, single point]	–
COC(=O)c1ccc(/C=C2\N=C(SC)SC2=O)cc1	inactive	–
CCN(CC)C(=O)c1sc(NC(=O)C(C)Sc2nc(-c3ccccc3)cc(C(F)(F)F)n2)c(C(=O)OC)c1C (stereo not given)	active: 3.55 µM	–
Cc1ccc(NC(=O)c2cc(-c3ccc(C)o3)nc3ccccc23)cc1	active: 10 µM	–
C/C(=N/NC(=O)c1ccc(-c2ccccc2)cc1)c1cc(O)cc(O)c1	inconclusive: 15.8 µM [inhibitor, partial curve, poor fit]	–
Nc1ccc2nc(N3CCOCC3)sc2c1	inconclusive: 44.7 µM [inhibitor, partial curve]	–
